According to publication PMC6794377:
Residue numbers refer to the chain shown, from its start. These are yes or no findings as the source states them, for the method shown. Binding seen in cells or lysates may run through a third protein. Some binding calls cover weakened binding; strength is not graded here. Sequences can lack the tags named with a protein.

Protein sequences, listed by entry. Tags and fused reporters are not part of them.
UniProt P07814: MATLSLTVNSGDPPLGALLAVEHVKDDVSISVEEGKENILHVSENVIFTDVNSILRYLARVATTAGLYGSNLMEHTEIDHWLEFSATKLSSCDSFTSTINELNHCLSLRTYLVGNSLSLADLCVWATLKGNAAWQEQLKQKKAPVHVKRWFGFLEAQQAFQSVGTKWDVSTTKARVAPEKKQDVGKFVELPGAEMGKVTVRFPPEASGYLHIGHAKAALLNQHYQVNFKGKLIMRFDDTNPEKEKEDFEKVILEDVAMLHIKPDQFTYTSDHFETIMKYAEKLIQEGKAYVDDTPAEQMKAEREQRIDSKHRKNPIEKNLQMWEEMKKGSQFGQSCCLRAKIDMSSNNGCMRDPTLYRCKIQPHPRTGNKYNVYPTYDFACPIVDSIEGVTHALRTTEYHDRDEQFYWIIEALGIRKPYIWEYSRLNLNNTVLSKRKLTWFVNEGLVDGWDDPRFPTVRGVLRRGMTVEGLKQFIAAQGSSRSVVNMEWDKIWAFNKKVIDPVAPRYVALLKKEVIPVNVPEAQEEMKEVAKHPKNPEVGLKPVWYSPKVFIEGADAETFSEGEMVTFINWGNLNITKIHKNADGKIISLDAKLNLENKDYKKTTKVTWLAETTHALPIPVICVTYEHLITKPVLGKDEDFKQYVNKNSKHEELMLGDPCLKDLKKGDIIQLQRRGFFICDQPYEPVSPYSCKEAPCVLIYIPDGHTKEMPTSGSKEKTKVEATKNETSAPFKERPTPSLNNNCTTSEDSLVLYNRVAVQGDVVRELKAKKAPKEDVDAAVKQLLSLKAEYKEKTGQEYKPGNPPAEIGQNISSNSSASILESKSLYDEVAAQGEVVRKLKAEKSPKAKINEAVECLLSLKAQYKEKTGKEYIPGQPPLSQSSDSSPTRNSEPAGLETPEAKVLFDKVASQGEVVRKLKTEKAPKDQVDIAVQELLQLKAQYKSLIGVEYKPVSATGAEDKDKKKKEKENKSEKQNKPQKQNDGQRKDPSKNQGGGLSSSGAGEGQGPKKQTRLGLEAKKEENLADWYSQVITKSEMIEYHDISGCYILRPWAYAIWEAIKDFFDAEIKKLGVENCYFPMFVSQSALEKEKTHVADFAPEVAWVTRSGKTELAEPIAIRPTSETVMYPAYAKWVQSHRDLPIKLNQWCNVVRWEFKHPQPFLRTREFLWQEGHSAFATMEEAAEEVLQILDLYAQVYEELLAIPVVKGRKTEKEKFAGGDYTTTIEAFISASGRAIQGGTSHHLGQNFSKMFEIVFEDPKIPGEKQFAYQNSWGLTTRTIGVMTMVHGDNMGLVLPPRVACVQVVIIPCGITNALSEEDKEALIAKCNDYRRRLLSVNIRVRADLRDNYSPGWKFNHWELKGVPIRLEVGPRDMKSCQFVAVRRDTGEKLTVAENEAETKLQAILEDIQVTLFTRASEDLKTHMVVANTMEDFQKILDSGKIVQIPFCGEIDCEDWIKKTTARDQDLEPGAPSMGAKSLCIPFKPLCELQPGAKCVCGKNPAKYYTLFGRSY

Experiments:
Assay in all cases: co-IP; FLAG-tagged hThrRS-L or mutant overexpressed in HEK293T; IP with anti-FLAG, Dynabeads protein G, 4°C; endogenous partners detected by western blotting
[1] = biological target: T1, C-terminal FLAG-tagged human threonyl-tRNA synthetase-like protein (hThrRS-L-FLAG) (human) (UniProt A2RTX5)
T1 sequence: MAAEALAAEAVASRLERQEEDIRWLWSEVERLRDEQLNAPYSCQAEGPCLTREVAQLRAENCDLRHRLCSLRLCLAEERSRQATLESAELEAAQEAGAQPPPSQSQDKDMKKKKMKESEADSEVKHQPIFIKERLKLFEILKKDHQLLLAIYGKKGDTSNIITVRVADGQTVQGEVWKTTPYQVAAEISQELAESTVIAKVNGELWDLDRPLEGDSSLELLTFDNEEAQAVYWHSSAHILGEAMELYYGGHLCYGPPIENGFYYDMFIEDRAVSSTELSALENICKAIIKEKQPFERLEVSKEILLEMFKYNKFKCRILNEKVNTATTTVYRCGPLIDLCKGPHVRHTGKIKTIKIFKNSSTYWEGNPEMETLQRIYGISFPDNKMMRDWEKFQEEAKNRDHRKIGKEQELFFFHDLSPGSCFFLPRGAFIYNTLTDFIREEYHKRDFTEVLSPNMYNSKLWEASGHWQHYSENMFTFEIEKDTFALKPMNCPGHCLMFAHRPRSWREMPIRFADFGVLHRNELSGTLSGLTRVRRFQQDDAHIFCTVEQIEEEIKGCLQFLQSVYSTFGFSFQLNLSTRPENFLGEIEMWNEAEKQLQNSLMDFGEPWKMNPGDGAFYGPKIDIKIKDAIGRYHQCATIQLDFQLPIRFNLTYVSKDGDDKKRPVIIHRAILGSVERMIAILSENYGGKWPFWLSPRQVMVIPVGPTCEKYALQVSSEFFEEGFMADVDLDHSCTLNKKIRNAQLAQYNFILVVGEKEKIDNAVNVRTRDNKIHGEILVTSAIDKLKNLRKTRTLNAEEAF

[2] = biological target: T2, hThrRS-L-Hb/A-FLAG (human) (UniProt A2RTX5)
T2 sequence: T1 sequence with L57A, L64A, L68A, L71A, L75A

[3] = biological target: T3, hThrRS-L-Ha/A-FLAG (human) (UniProt A2RTX5)
T3 sequence: T1 sequence with L15A, I22A, L25A, V29A, L32A

binding [1]: binds
binding [2]: no binding
binding [3]: no binding
Substance: GluProRS, endogenous in HEK293T (from UniProt P07814 1-1512) (enzyme)
